# In all, about 33,000 sequences were measured (“E-score (-0.5 to 0.5)”: median about -0.043, highest 2% from about 0.37 on). The list shows a part of the results.
# Target: T1, Upc2 (UniProt Q12151)
# T1 sequence: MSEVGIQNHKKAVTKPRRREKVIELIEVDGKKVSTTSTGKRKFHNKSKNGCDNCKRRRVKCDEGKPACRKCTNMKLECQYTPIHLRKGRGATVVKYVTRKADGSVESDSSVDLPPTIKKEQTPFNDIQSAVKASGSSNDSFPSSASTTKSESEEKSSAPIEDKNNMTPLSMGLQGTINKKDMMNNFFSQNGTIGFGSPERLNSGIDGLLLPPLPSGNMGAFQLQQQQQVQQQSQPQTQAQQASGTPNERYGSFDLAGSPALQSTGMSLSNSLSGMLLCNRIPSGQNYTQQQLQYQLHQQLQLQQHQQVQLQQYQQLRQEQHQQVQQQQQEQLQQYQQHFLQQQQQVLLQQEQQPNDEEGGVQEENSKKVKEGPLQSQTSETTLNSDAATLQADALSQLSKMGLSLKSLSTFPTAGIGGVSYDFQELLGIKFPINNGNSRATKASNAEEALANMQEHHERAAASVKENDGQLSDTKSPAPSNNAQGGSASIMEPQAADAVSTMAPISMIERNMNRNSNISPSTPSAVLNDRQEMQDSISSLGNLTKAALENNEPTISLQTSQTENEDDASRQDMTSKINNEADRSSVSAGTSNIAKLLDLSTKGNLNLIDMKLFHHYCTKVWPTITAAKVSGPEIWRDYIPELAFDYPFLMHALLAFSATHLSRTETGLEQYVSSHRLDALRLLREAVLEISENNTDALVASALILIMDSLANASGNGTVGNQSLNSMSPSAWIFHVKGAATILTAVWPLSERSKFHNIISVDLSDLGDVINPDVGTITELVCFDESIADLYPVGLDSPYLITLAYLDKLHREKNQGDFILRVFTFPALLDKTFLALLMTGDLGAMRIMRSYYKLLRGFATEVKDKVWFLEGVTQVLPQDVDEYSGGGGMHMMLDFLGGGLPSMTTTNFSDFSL
# Assay: PBM E-score (8-mer binding enrichment) (E-score (-0.5 to 0.5)); higher = stronger / more preferred TF binding; most listed sequences are background and not binding sites
# Conditions: protein concentration: 200 nM; construct: GST-full length
# Procedure, shortened: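 Universal all-10-mer Agilent arrays, fresh or stripped once, were converted to double-stranded form by primer extension. GST-tagged yeast transcription factors from PURExpress in vitro transcription/translation, full-length or DNA-binding domain only, were applied at about 100-200 nM and detected with fluorescent anti-GST. After masliner normalisation, the Universal PBM Analysis Suite scored each ungapped eight-base word together with its reverse complement by E-score.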
row,Sequence,PBM E-score
1,CCGGCGCG,-0.0503
2,TATGTAAA,0.103
3,ATCATCAG,-0.107
4,AGTATCAA,-0.1
5,CCGCTTCG,-0.0227
6,CGGTTGGA,-0.0446
7,AACAAGCA,-0.192
8,TACGACAA,0.46
9,CGCGTACC,0.302
10,ACCACTCC,-0.131
11,ACAGGTAT,0.165
12,AGAAGATG,-0.101
13,AGCCTTTA,0.0736
14,GTGCGAAC,0.0898
15,ATCGCGGA,-0.171
16,CTACAGTC,-0.112
17,ACATAACG,0.116
18,CCCCGTGC,0.0447
19,CCTTTATA,-0.135
20,ACGCACGT,0.144
21,ACGATAGA,0.309
22,CCATGTTC,-0.0966
23,AGATCCGG,-0.135
24,AAAAGAAT,0.115
25,GACGCGAA,-0.0143

row,Sequence,PBM E-score
1,CTGCAGTA,-0.189
2,TCTAAAAA,-0.0868
3,ACCTTTTC,-0.129
4,GTTTGACA,0.201
5,CCCGCCGC,0.114
6,TGAAAGAA,0.00635
7,ATTTGCGA,0.214
8,CCTCCACG,-0.131
9,AAGGGGAG,-0.157
10,CGGGTAGA,0.113
11,CATCACCA,-0.152
12,ACCAGTGA,-0.105
13,GAATTGAA,0.0546
14,CTAGCCTC,-0.0793
15,AATCGGAC,-0.0267
16,CCACTGTA,0.0804
17,ACTGAGCG,0.0165
18,GGCGTGAA,-0.00201
19,CAGCGGCA,-0.195
20,GCGTATCA,0.182
21,AAGTCCAC,-0.286
22,TGACAGCA,0.00022
23,ACGACGTG,0.351
24,CACACTAG,-0.125
25,GGCTACAA,-0.0568

row,Sequence,PBM E-score
1,ACGAATGA,0.354
2,CGACTTGA,0.0465
3,AACTCCTC,-0.0652
4,GCGGCATA,0.129
5,GTTCAAGA,0.144
6,GCCTACCC,-0.232
7,ATCGGAAA,0.0523
8,GCCCTACC,-0.19
9,CCGCCGTC,-0.125
10,ATGGAGCA,-0.0645
11,ATGGTGGG,-0.278
12,CGCGCAGA,0.131
13,TACTTACA,0.092
14,TAATGAAA,0.119
15,AGGACATC,0.0709
16,CAGGCGAG,-0.229
17,AACTCTCG,0.0165
18,TGTGCTAA,-0.0229
19,GGACTTTA,-0.0205
20,AACCTTAG,-0.219
21,GGACCCGA,-0.0888
22,GTGACAAA,0.0143
23,TAAATACA,0.122
24,TCGTGAAA,0.237
25,ACCAACGG,-0.115

row,Sequence,PBM E-score
1,AGCGGTTG,-0.0212
2,CGGCAGAC,-0.105
3,AGCAGGGG,-0.215
4,ATGGTGCC,-0.111
5,CCCCGCCA,0.141
6,AGTATGCG,0.14
7,CAGTTATG,-0.106
8,AGGCGTCG,0.174
9,AAATAATA,0.0878
10,AACGTGCT,-0.0916
11,GCACCCGA,0.0742
12,AGACTTAT,-0.0768
13,GAACTCAA,-0.116
14,CTGTGCTC,0.00992
15,AATTTTGT,0.0987
16,AGCACGAC,-0.0183
17,AATTCAGC,-0.0307
18,ATCCTGGC,-0.125
19,CACAGTCC,-0.241
20,GCACTAAC,0.0151
21,GAAAGGGA,-0.154
22,AGCGGCTG,-0.183
23,AACAATCT,-0.137
24,AAGGTAAA,0.168
25,CGCGTCGC,-0.00842

row,Sequence,PBM E-score
1,ACCATTAT,-0.192
2,TGACATAA,-0.0817
3,CACGATGG,0.0566
4,AATGCGAG,0.208
5,GCACCTAA,-0.00731
6,AGTCGGTG,-0.217
7,TATTAACA,0.14
8,AGAAGTGG,-0.0803
9,ACATGTAT,-0.00552
10,CGCCCTCA,-0.153
11,CGCAAGCA,-0.0774
12,AGATGACC,-0.302
13,ATGAAGGC,-0.0722
14,CTTAACCA,-0.0796
15,ACGCGAAT,0.243
16,GGACTAGA,-0.223
17,AACTTCTT,0.0405
18,CATGTGAC,-0.248
19,AACATAGA,-0.147
20,ACCGCAGG,-0.151
21,GCCTTCGC,-0.106
22,CGTGCGAA,0.214
23,CCATATCC,-0.119
24,AGGGCGAT,-0.00906
25,TATATACA,0.0785

row,Sequence,PBM E-score
1,ACCCGGCG,0.0259
2,AGCAGACT,-0.026
3,ACCCAAAA,0.115
4,CAAGGCAA,-0.194
5,GGTACGTA,0.313
6,ATAGGTCA,0.153
7,AGGGGGTG,-0.227
8,CGCCTGAA,0.0954
9,GAATTTAC,0.204
10,ACAATGAC,-0.131
11,CTATTTCC,0.0751
12,CAGACTGA,-0.0971
13,CACACCCC,-0.261
14,ACATACGT,0.239
15,AATAACTG,0.0722
16,GCTCGAGC,0.15
17,ACAGGCTG,-0.153
18,ACGGGAAA,0.0455
19,GACAAGGC,-0.0207
20,GCGCGGCA,0.123
21,TACCGTAA,0.252
22,GCTATCGA,-0.0199
23,AAAGGGTC,0.00092
24,AGGGCACG,-0.0167
25,GTAGTCCA,-0.206

row,Sequence,PBM E-score
1,CTCCTCAC,-0.083
2,CTCAATAA,-0.213
3,AGTCCAAT,-0.149
4,TCAACACA,-0.0099
5,ATACGTTA,0.302
6,AACGATAG,0.404
7,CTAGCCCC,-0.237
8,ATCAGAGC,-0.0158
9,GCACTAGA,-0.157
10,CCTCGTGC,0.0326
11,CCTCGGAA,0.228
12,CAAGCGAC,0.169
13,GCTTAGCA,-0.00347
14,ACTCATAG,-0.257
15,GATGAACA,-0.0877
16,CTTGTTTC,0.033
17,ATCTTCAT,0.00644
18,ACCCTCTA,-0.153
19,ACATGGAT,-0.22
20,AACTGCGT,0.0942
21,CATCTTTA,0.111
22,AAAATTAT,0.0354
